# Test results: the supplement of paper PMC8728848
# Some of the results follow.
# Assays:
# Assay in all cases: glycan array binding signal (z-score within array); higher = stronger binding
# Details in all cases: glycan notation: IUPAC condensed, linker removed
# [1] = biological target: Neu5Ac(a2-6)Gal(b1-4)GlcNAc(b1-3)Gal(b1-4)GlcNAc(b1-3)GalNAc
# Procedure, shortened: (§1)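 The binding signal is a Z-score computed within each array. Data were drawn from 3228 arrays in the Consortium for Functional Glycomics database, restricted to those with a known protein sequence. Scores were averaged over arrays of the same protein sequence at different concentrations or buffers, and over linkers, and negative values can be taken as non-binding.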
# [2] = biological target: Neu5Ac(a2-6)Gal(b1-4)GlcNAc(b1-3)Gal(b1-4)GlcNAc(b1-3)[Neu5Ac(a2-6)Gal(b1-4)GlcNAc(b1-3)Gal(b1-4)GlcNAc(b1-6)]GalNAc
# Procedure, shortened: as §1
# [3] = biological target: Neu5Ac(a2-6)Gal(b1-4)GlcNAc(b1-3)Gal(b1-4)GlcNAc(b1-6)[Gal(b1-3)]GalNAc
# Procedure, shortened: as §1
# [4] = biological target: Neu5Ac(a2-6)Gal(b1-4)GlcNAc(b1-3)Gal(b1-4)[Fuc(a1-3)]GlcNAc(b1-3)Gal(b1-4)[Fuc(a1-3)]GlcNAc
# Procedure, shortened: as §1
# [5] = biological target: Neu5Ac(a2-6)Gal(b1-4)GlcNAc(b1-3)GalNAc
# Procedure, shortened: as §1
# [6] = biological target: Neu5Ac(a2-6)Gal(b1-4)GlcNAc(b1-3)[Neu5Ac(a2-6)Gal(b1-4)GlcNAc(b1-6)]GalNAc
# Procedure, shortened: as §1
# [7] = biological target: Neu5Ac(a2-6)Gal(b1-4)GlcNAc(b1-6)GalNAc
# Procedure, shortened: as §1
# [8] = biological target: Neu5Ac(a2-6)Gal(b1-4)GlcNAc(b1-6)[Gal(b1-3)GlcNAc(b1-3)]Gal(b1-4)Glc
# Procedure, shortened: as §1
# [9] = biological target: Neu5Ac(a2-6)Gal(b1-4)GlcNAc(b1-6)[Gal(b1-3)]GalNAc
# Procedure, shortened: as §1
# [10] = biological target: Neu5Ac(a2-6)Gal(b1-4)GlcNAc6S
# Procedure, shortened: as §1
# [11] = biological target: Neu5Ac(a2-6)GalNAc
# Procedure, shortened: as §1
# [12] = biological target: Neu5Ac(a2-6)GalNAc(b1-4)GlcNAc
# Procedure, shortened: as §1
# [13] = biological target: Neu5Ac(a2-6)GalNAc(b1-4)GlcNAc6S
# Procedure, shortened: as §1
# [14] = biological target: Neu5Ac(a2-6)GlcNAc(b1-4)GlcNAc
# Procedure, shortened: as §1
# [15] = biological target: Neu5Ac(a2-6)GlcNAc(b1-4)GlcNAc(b1-4)GlcNAc
# Procedure, shortened: as §1
# [16] = biological target: Neu5Ac(a2-8)Neu5Ac
# Procedure, shortened: as §1
# [17] = biological target: Neu5Ac(a2-8)Neu5Ac(a2-3)Gal(b1-3)GalNAc(b1-4)[Neu5Ac(a2-3)]Gal(b1-4)Glc
# Procedure, shortened: as §1
# [18] = biological target: Neu5Ac(a2-8)Neu5Ac(a2-3)Gal(b1-3)GalNAc(b1-4)[Neu5Ac(a2-8)Neu5Ac(a2-3)]Gal(b1-4)Glc
# Procedure, shortened: as §1
# [19] = biological target: Neu5Ac(a2-8)Neu5Ac(a2-3)Gal(b1-4)Glc
# Procedure, shortened: as §1
# [20] = biological target: Neu5Ac(a2-8)Neu5Ac(a2-3)Gal(b1-4)GlcNAc
# Procedure, shortened: as §1
# [21] = biological target: Neu5Ac(a2-8)Neu5Ac(a2-3)[Gal(b1-3)GalNAc(b1-4)]Gal(b1-4)Glc
# Procedure, shortened: as §1
# [22] = biological target: Neu5Ac(a2-8)Neu5Ac(a2-3)[GalNAc(b1-4)]Gal(b1-4)Glc
# Procedure, shortened: as §1
# [23] = biological target: Neu5Ac(a2-8)Neu5Ac(a2-8)Neu5Ac
# Procedure, shortened: as §1
# [24] = biological target: Neu5Ac(a2-8)Neu5Ac(a2-8)Neu5Ac(a2-3)Gal(b1-4)Glc
# Procedure, shortened: as §1
# [25] = biological target: Neu5Ac(a2-8)Neu5Ac(a2-8)Neu5Ac(a2-3)[Gal(b1-3)GalNAc(b1-4)]Gal(b1-4)Glc
# Procedure, shortened: as §1
# [26] = biological target: Neu5Ac(a2-8)Neu5Ac(a2-8)Neu5Ac(a2-3)[GalNAc(b1-4)]Gal(b1-4)Glc
# Procedure, shortened: as §1
# [27] = biological target: Neu5Ac(a2-8)Neu5Ac(a2-8)Neu5Ac(a2-8)Neu5Ac(a2-3)[GalNAc(b1-4)]Gal(b1-4)Glc
# Procedure, shortened: as §1
# [28] = biological target: Neu5Ac(a2-8)Neu5Gc(a2-3)Gal(b1-4)GlcNAc
# Procedure, shortened: as §1
# [29] = biological target: Neu5Ac(b2-6)Gal(b1-4)GlcNAc
# Procedure, shortened: as §1
# [30] = biological target: Neu5Ac(b2-6)GalNAc
# Procedure, shortened: as §1
# [31] = biological target: Neu5Ac9Ac(a2-3)Gal(b1-3)GlcNAc
# Procedure, shortened: as §1
# [32] = biological target: Neu5Ac9Ac(a2-3)Gal(b1-4)GlcNAc
# Procedure, shortened: as §1
# [33] = biological target: Neu5Ac9Ac(a2-6)Gal(b1-4)GlcNAc
# Procedure, shortened: as §1
# [34] = biological target: Neu5Gc(a2-3)Gal(b1-3)GlcNAc
# Procedure, shortened: as §1
# [35] = biological target: Neu5Gc(a2-3)Gal(b1-3)[Fuc(a1-4)]GlcNAc
# Procedure, shortened: as §1
# [36] = biological target: Neu5Gc(a2-3)Gal(b1-4)Glc
# Procedure, shortened: as §1
# [37] = biological target: Neu5Gc(a2-3)Gal(b1-4)GlcNAc
# Procedure, shortened: as §1
# [38] = biological target: Neu5Gc(a2-3)Gal(b1-4)GlcNAc(b1-3)Gal(b1-4)GlcNAc(b1-2)Man(a1-3)[Neu5Gc(a2-3)Gal(b1-4)GlcNAc(b1-3)Gal(b1-4)GlcNAc(b1-2)Man(a1-6)]Man(b1-4)GlcNAc(b1-4)GlcNAc
# Procedure, shortened: as §1
# [39] = biological target: Neu5Gc(a2-3)Gal(b1-4)[Fuc(a1-3)]GlcNAc
# Procedure, shortened: as §1
# [40] = biological target: Neu5Gc(a2-6)Gal(b1-4)GlcNAc
# Procedure, shortened: as §1
# [41] = biological target: Neu5Gc(a2-6)GalNAc
# Procedure, shortened: as §1
# [42] = biological target: Neu5Gc(a2-8)Neu5Ac(a2-3)Gal(b1-4)GlcNAc
# Procedure, shortened: as §1
# [43] = biological target: Neu5Gc(a2-8)Neu5Gc(a2-3)Gal(b1-4)GlcNAc
# Procedure, shortened: as §1
# [44] = biological target: Neu5Gc(a2-8)Neu5Gc(a2-3)Gal(b1-4)GlcNAc(b1-3)Gal(b1-4)GlcNAc
# Procedure, shortened: as §1
# [45] = biological target: Neu5Gc(a2-8)Neu5Gc(a2-6)Gal(b1-4)GlcNAc
# Procedure, shortened: as §1
# [46] = biological target: Neu5Gc(b2-6)Gal(b1-4)GlcNAc
# Procedure, shortened: as §1
binder,measurement,setting,value
PX9937B-bvu-524-33-524 (Bacteroides vulgatus) (protein) GTAYWKNPDQFTAFNTGLHALLREKSYNFFLLGEPRADIYGDNPIGGEASQGMERLPFNTINKENVGISNYGDMYKIINQINQMIAKTTETTILTEATQNYYLGEAYGMRAYLYFHLLRSWGDVVLYLDYTEGQNLDLSNITKGVSPATEVMEQIKKDIQASENAFGSDYSFKLGRHFWSAAATQMLKGEAYLWSGRQMNGGNSDYTIAKNAFENVKKADVGLVTSSFKDIFSFENKKNKEMIFTIHNGKDEYEMWGGYYRMRLIPAQDKMVKIYCDENGNSFVGTPDAQLNGLTQLQVRREFYFKGFRNNDTRWTTSLKAVYKKDAQGVVSYFGPITYKFQGTMLEGGSTRSFLDDFPIYRYADCLLQLAMAKVLLGEDPTEEINAVRERAYGSKYFNEHKAEIAYPNDNDPEFYTDNKWMKPDNAGALEAILKERLREFMFEGKRWYDIRLLGWDYVHQYSSAEQSRLLWPIDAGTLTNNSALKQTPGYE,glycan array binding signal (z-score),[1],-0.066
same,glycan array binding signal (z-score),[2],-0.402
same,glycan array binding signal (z-score),[3],0.172
same,glycan array binding signal (z-score),[4],-0.192
same,glycan array binding signal (z-score),[5],0.234
same,glycan array binding signal (z-score),[6],-0.386
same,glycan array binding signal (z-score),[7],-0.375
same,glycan array binding signal (z-score),[8],0.226
same,glycan array binding signal (z-score),[9],-0.223
same,glycan array binding signal (z-score),[10],-0.386
same,glycan array binding signal (z-score),[11],-0.366
same,glycan array binding signal (z-score),[12],-0.319
same,glycan array binding signal (z-score),[13],-0.369
same,glycan array binding signal (z-score),[14],-0.273
same,glycan array binding signal (z-score),[15],-0.108
same,glycan array binding signal (z-score),[16],-0.053
same,glycan array binding signal (z-score),[17],-0.039
same,glycan array binding signal (z-score),[18],-0.231
same,glycan array binding signal (z-score),[19],-0.268
same,glycan array binding signal (z-score),[20],-0.154
same,glycan array binding signal (z-score),[21],-0.453
same,glycan array binding signal (z-score),[22],-0.327
same,glycan array binding signal (z-score),[23],-0.038
same,glycan array binding signal (z-score),[24],-0.414
same,glycan array binding signal (z-score),[25],-0.321
same,glycan array binding signal (z-score),[26],-0.379
same,glycan array binding signal (z-score),[27],-0.281
same,glycan array binding signal (z-score),[28],5.74
same,glycan array binding signal (z-score),[29],-0.405
same,glycan array binding signal (z-score),[30],-0.36
same,glycan array binding signal (z-score),[31],-0.172
same,glycan array binding signal (z-score),[32],-0.145
same,glycan array binding signal (z-score),[33],0.213
same,glycan array binding signal (z-score),[34],0.806
same,glycan array binding signal (z-score),[35],-0.316
same,glycan array binding signal (z-score),[36],0.188
same,glycan array binding signal (z-score),[37],-0.328
same,glycan array binding signal (z-score),[38],0.18
same,glycan array binding signal (z-score),[39],-0.39
same,glycan array binding signal (z-score),[40],0.039
same,glycan array binding signal (z-score),[41],0.029
same,glycan array binding signal (z-score),[42],-0.104
same,glycan array binding signal (z-score),[43],-0.304
same,glycan array binding signal (z-score),[44],-0.194
same,glycan array binding signal (z-score),[45],-0.344
same,glycan array binding signal (z-score),[46],-0.009
